Measurements reported in PubChem BioAssay AID463173 (ICCB-Longwood Screening Facility, Harvard Medical School, 2010).
Hit rate of the full screen: of about 52,000 compounds, about 4,300 (8.3%) were called active. Cut-off read from the data, not from the text of the source: active = survival mostly below about 52% (no sharp cut-off); inactive = mostly above about 56%. The list shows a part of the results.

Each molecule was assayed on DeltatarO mutant (assay: S. aureus survival, RN4220 and DeltatarO strains – OD600, teichoic acid synthesis inhibitors, primary screen (AID 463173)). Conditions: S. aureus RN4220 wild type/DeltatarO growth, OD600, 18 h, hits give low values, screened at 18.75 µg/mL (by protocol).

Compound	survival
Cc1ccn2c(Nc3ccc4c(c3)OCO4)c(-c3ccc(Cl)cc3)nc2c1	inactive: 96%
O=C(Nc1ccc(F)c(F)c1)c1cc(S(=O)(=O)NCc2ccc3c(c2)OCO3)ccc1F	inactive: 77%
CCOC(=O)c1nn2c(C(F)(F)F)cc(-c3ccc(C)cc3)nc2c1Cl	inactive: 76%
CN1C(=S)NC(C)(C)CC1(C)O (stereo not given)	inactive: 92%
CCCCC(=O)Nc1nnc(SCc2cc(=O)n3cc(C)ccc3n2)s1	inactive: 79%
Cc1nn(C)c(C)c1CCNC(=O)Nc1cccc(Cl)c1C	inactive: 67%
COc1ccc(Cn2cc(C(=O)c3ccc(F)cc3)c(=O)c3cc4c(cc32)OCCO4)cc1	inactive: 66%
CC(=O)Nc1nonc1-c1nnc(SCC(=O)Nc2cccc(C)c2C)n1-c1ccccc1	inactive: 61%
COc1ccc(-c2nc3ccccc3o2)cc1NC(=O)c1ccc(-c2ccc(Br)cc2)o1	active: 43%
CC1CCN(C(=O)Cn2cc(SCC(=O)Nc3ccccc3C(F)(F)F)c3ccccc32)CC1	inactive: 93%
COc1ccc(-c2nc(CCNC(=O)c3c(F)cccc3Cl)cs2)cc1	inactive: 128%
CCCCc1nn2c(=O)cc(COC(=O)c3ccco3)nc2s1	inactive: 77%
CCCCNc1ccc(-c2nc(-c3ccncc3)no2)cc1[N+](=O)[O-]	inactive: 59%
COc1ccc(-c2csc(NCCCN(C)C)n2)cc1	inactive: 91%
COc1cccc(NC(=O)Cn2c(=O)ccc3cc(S(=O)(=O)N4CCC(C)CC4)ccc32)c1	inactive: 69%
CCSc1nc2c([nH]c3ccccc32)c(=O)n1-c1cccc(OC)c1	inactive: 94%
OCCCc1n[nH]c(=S)n1-c1ccccc1	inactive: 93%
CCOc1ccc(-c2nnc(SCC(=O)NC(C)CC)nc2-c2ccc(OCC)c(OC)c2)cc1OC (stereo not given)	inactive: 67%
Cc1cccc(-c2cc3nc(C)cc(NCCCn4ccnc4)n3n2)c1	inactive: 88%
O=C1NC2(CCCCC2)C(=O)N1c1ccc(Cl)cc1	inactive: 109%

Compound	survival
Cn1nc(-c2ccc(OCC(=O)Nc3ccc(Cl)cc3)cc2)c2ccccc2c1=O	inactive: 74%
CCN(C(=O)c1cc2c(=O)n(CC)c3ccccc3c2s1)c1cccc(C(F)(F)F)c1	inactive: 72%
COc1ccc(Br)cc1CNC(=O)c1cnc2sc(N3CCCCCC3)nn2c1=O	inactive: 99%
Cc1cccc(NC(=O)C2CCCN(S(=O)(=O)c3c(C)n[nH]c3C)C2)c1 (stereo not given)	inactive: 135%
CCC(C(=O)Nc1ccccc1)n1nc(-c2cc(C)ccc2C)ccc1=O (stereo not given)	active: 37%
CCN(CC)C(=O)CSc1nc(C)cc(C)n1	inactive: 69%
Cc1ccc(CN2C(=O)C(=O)c3cc(Br)cc(C)c32)cc1	active: 31%
CCN1C(=O)N(c2ccc(C(C)=O)cc2)S(=O)(=O)c2ccccc21	inactive: 83%
CSc1ccc(CCNC(=O)Cn2ncn3c(cc4ccccc43)c2=O)cc1	inactive: 77%
CCOc1ccc(-n2c(=O)c3c(C)c(C)sc3n(CC(=O)Nc3ccc(CC)cc3)c2=O)cc1	active: 46%
Cc1ccccc1Nc1c(-c2cccnc2)nc2cccc(C)n12	inactive: 92%
C/C(=N\NC(=O)c1ccc(N)cc1)C(C)(C)C	inactive: 65%
O=C(NCCN1CCCC1)c1ccc(Cl)cc1	inactive: 98%
CC(C)CCn1nnnc1CN1CCN(C(=O)c2ccco2)CC1	inactive: 60%
CC(C)c1ccc(NC(=O)C2Cc3ccccc3N2C(=O)c2ccccc2)cc1 (stereo not given)	inactive: 69%
COc1ccc(CNc2nc(-c3ccc(Cl)cc3)nn2C(=O)c2ccccc2)cc1	active: 36%
COc1ccccc1CNC(=O)c1ccc(CSc2nc3ccncc3n2Cc2ccccc2C)cc1	inactive: 74%
Cc1ccc(S(=O)(=O)C2(C(=O)Nc3ccc(C(C)C)cc3)CC2)cc1	active: 19%
Cc1cccc(CN2CCC(C(=O)N3CCC(C)CC3)CC2)c1	inactive: 101%
COc1ccccc1Nc1c2c(nc3ccc(NC(=O)/C=C/c4cc(OC)c(OC)c(OC)c4)cc13)CCCC2	inactive: 81%

Compound	survival
CCN(CC)C(=O)CSc1cn(CC(=O)N2CCCCCC2)c2ccccc12	inactive: 94%
Cc1ccc(NC(=O)C2CCN(c3nc4ccccc4nc3C(F)(F)F)CC2)cc1C	inactive: 91%
CCn1c2ccccc2c2nnc(N3CCN(c4ccc(OC)cc4)CC3)nc21	inactive: 70%
COc1ccc(-c2cc(C(F)(F)F)nc(SCCC(=O)Nc3ccc(O)cc3)n2)cc1	inactive: 70%
CCOC(=O)Cn1nc(C)c(NC(=O)COc2ccc(C)c(C)c2)c1C	inactive: 73%
CCCN(CCC)S(=O)(=O)c1ccc(N2CCCCS2(=O)=O)cc1	inactive: 73%
CCOc1ccc(-n2cc(-c3ccccc3)c3c(NCc4ccc(F)cc4)ncnc32)cc1	inactive: 95%
Cc1ccc(-n2ncc(C(=O)N3CCN(c4ncccn4)CC3)c2C2CCN(C(=O)OC(C)(C)C)CC2)cc1	inactive: 80%
Cc1cc(C)cc(N2C(=O)CS(=O)(=O)C23C(=O)N(C)c2ccccc23)c1 (stereo not given)	inactive: 76%
Cc1nc(-c2ccc(S(=O)(=O)N(C)Cc3ccccc3)cc2)co1	inactive: 95%
CCc1ccc(Nc2ncnc3sc4c(c23)CCCC4)cc1	inactive: 72%
COc1ccc(CNc2n[nH]c(-c3ccco3)n2)cc1OC	active: 62%
COc1cc(NC(=O)Cn2c(=O)n(Cc3ccccc3Cl)c(=O)c3cc(OC)c(OC)cc32)cc(OC)c1	inactive: 99%
O=C(N1CCOCC1)N1CCN(S(=O)(=O)c2ccccc2)C1	inactive: 91%
CCCc1c(C(=O)OCC)nnc2c(-c3ccccc3)c(C)nn12	inactive: 49%
CCCN(C(=O)c1cc2c(=O)n(CC)c3ccccc3c2s1)c1ccccc1F	inactive: 64%
COc1ccc(CCN2C(=O)N(c3ccc(F)cc3)C(=O)C2CC(=O)Nc2ccccc2)cc1OC (stereo not given)	inactive: 76%
Fc1ccc([C@@H]2Nc3ccccc3[C@@H]3C=CC[C@@H]32)cc1	inactive: 56%
O=C1OC(C(=O)O)Cc2ccccc21 (stereo not given)	inactive: 94%
Nc1ccc(Cc2ccccc2)cc1	inactive: 69%
